Assay results reported in the supplement of paper PMC3334620.
Over roughly 33,000 sequences, “E-score (-0.5 to 0.5)” has its median near -0.035; the highest 2% begin near 0.35. Some of the results follow.

Each sequence was assayed against T1, Pdr3 (UniProt P33200) (assay: PBM E-score (8-mer binding enrichment) (E-score (-0.5 to 0.5)); higher = stronger / more preferred TF binding; most listed sequences are background and not binding sites). Details: protein concentration: 200 nM; construct: GST-full length.
T1 sequence: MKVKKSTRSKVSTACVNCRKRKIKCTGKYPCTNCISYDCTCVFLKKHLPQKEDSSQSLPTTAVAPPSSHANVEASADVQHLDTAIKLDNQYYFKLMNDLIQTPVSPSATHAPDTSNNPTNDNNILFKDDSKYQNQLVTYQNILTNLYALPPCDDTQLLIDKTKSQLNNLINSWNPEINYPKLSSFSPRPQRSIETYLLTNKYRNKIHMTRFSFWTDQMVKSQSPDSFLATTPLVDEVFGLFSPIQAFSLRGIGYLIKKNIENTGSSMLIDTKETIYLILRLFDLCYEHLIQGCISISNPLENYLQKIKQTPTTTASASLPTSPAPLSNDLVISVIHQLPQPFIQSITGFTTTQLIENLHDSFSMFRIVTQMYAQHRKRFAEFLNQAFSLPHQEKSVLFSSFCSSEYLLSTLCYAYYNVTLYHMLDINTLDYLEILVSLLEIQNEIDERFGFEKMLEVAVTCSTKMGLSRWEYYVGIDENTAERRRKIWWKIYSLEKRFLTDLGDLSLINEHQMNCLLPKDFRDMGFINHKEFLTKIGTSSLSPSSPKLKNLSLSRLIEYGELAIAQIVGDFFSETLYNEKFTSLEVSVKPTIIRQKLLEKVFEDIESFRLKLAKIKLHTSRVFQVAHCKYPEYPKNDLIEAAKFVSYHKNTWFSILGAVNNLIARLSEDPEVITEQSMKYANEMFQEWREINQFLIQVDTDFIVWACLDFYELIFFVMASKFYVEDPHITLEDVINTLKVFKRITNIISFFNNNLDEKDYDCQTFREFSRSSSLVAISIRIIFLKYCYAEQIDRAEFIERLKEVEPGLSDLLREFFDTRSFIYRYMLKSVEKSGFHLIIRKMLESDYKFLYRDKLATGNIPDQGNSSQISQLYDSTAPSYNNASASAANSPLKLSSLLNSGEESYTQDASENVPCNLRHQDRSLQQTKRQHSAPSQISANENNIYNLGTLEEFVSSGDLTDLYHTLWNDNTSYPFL
Summary of the method: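 The E-score, a modified Wilcoxon-Mann-Whitney statistic, was computed by the Universal PBM Analysis Suite for every ungapped eight-base word pooled with its reverse complement. Scans behind it were normalised with masliner after bound GST-tagged yeast transcription factors were detected with fluorescent anti-GST. The proteins, at about 100-200 nM, had been applied to universal all-10-mer Agilent arrays made double-stranded by primer extension.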

Row | Sequence | PBM E-score
1 | ATACTTCC | 0.219
2 | CCTCTAGA | -0.199
3 | ATACTTGC | -0.102
4 | GCGAGTAC | -0.0233
5 | AGTCAGCA | -0.256
6 | ACAGGGGA | -0.216
7 | CCTTGTCC | 0.118
8 | TACGTGGA | -0.0157
9 | CGTTGAAG | -0.129
10 | CTCTGCTC | -0.0646
11 | AGCTTAAT | 0.146
12 | GATCTGTA | 0.00649
13 | AGGTCATG | -0.18
14 | GTATCTGA | -0.146
15 | CCGTGACA | 0.244
16 | AGGCTTTG | -0.0853
17 | CGGGTGGC | 0.264
18 | CTCCCGGC | 0.368
19 | AAACGTCT | -0.245
20 | CGTTGTCA | 0.00446
21 | AAGTGGAT | -0.0435
22 | AGGTCAGA | -0.118
23 | ATGCTCGG | 0.199
24 | TTAGTCAA | -0.275
25 | AACCCTCT | -0.255

Row | Sequence | PBM E-score
26 | AGCCTAGC | -0.135
27 | AGACCCGA | 0.274
28 | CCGCGTCA | 0.0139
29 | AATCGAAG | 0.0615
30 | CACTCCGG | 0.351
31 | CAATCCTG | 0.0156
32 | ATGGCTGA | -0.135
33 | CGCCGGAC | 0.316
34 | ATTTGCGG | 0.309
35 | CCGATGCC | 0.143
36 | TAGCGAGA | -0.075
37 | AACCCGAA | 0.196
38 | TGCTACCA | -0.177
39 | CTACACTC | -0.144
40 | ACCTCTTG | -0.0415
41 | TAGCACGA | -0.123
42 | CCGGGTAC | 0.303
43 | CTCACCCA | 0.0849
44 | CCGCAAAA | 0.124
45 | ATTAGACC | -0.238
46 | GTGGGAAA | -0.0227
47 | CAACGACC | 0.0721
48 | AGGACCCC | -0.0385
49 | CGGGCCCA | 0.0442
50 | CCGATTCA | -0.0319

Row | Sequence | PBM E-score
51 | ACAACTTC | 0.167
52 | CGGCCTCA | 0.165
53 | GAATTAGA | -0.0794
54 | ACACTTTG | -0.123
55 | GCTGCAAA | -0.0739
56 | TTATGAAA | 0.0764
57 | AGCTCGTC | -0.152
58 | GACTATCC | 0.0419
59 | ATTAGTAG | -0.102
60 | CTCCCATC | 0.019
61 | AACAACTT | 0.105
62 | GCCACGGA | 0.415
63 | CAGAGACA | -0.2
64 | ACACCTCT | -0.0108
65 | CGATTACG | -0.128
66 | CGTATTCA | 0.0955
67 | ATATCGAC | 0.12
68 | ATACCAGC | -0.0813
69 | AGGTTGAT | -0.181
70 | ATTTGAAG | -0.0814
71 | GACCTACC | 0.0277
72 | CCGACTCA | 0.093
73 | CAAGAGTA | -0.0895
74 | GAGACCAC | -0.156
75 | CGATCGGA | 0.196

Row | Sequence | PBM E-score
76 | AGTTTGTA | 0.031
77 | AATCGAAA | -0.0443
78 | CTCATGTA | -0.0526
79 | GCAACGAC | -0.0375
80 | AAAGCGGG | -0.00019
81 | TATAGAGA | -0.376
82 | CGCGACTC | 0.02
83 | CGTGACAC | 0.134
84 | AGCAGATG | -0.267
85 | CCATTTCA | -0.207
86 | GCCCCTTA | -0.0381
87 | ACTCTTCG | -0.073
88 | GCCCTAAA | -0.219
89 | ACCAAACG | -0.123
90 | GAGTTTAC | 0.0528
91 | ACTCCAGT | -0.118
92 | CTACTGTC | -0.095
93 | ACTAACAT | 0.11
94 | AGTACGAG | 0.107
95 | AACGGCGT | -0.065
96 | CGACTTAG | -0.224
97 | GCTAACTA | 0.0799
98 | GAGTTCGA | 0.0915
99 | AATCGGGG | 0.143
100 | AGAAGAAA | -0.0697

Row | Sequence | PBM E-score
101 | AATATAGC | 0.0191
102 | CGCGGGGC | 0.304
103 | GCTAGCAA | -0.169
104 | CAGCCGCC | 0.22
105 | ACTAGAGC | -0.0831
106 | ACATAGGA | -0.164
107 | GCTCTCGA | -0.108
108 | GAGGTCCC | 0.105
109 | AATTATCG | 0.117
110 | TGCGCACA | 0.0876
111 | TACTAGTA | -0.0111
112 | ATATTACC | 0.0536
113 | CGTGGAAG | 0.208
114 | CGCCTTAA | -0.0423
115 | GGGGGACA | 0.0303
116 | CATTCACG | -0.0839
117 | GGTGTGGA | -0.024
118 | GGACCTAA | 0.129
119 | ATCACTTC | 0.0927
120 | CCCTTAAC | -0.264
121 | AGACCCTC | -0.101
122 | ATATAATA | 0.0909
123 | GGGTAACA | -0.0538
124 | CACGCGTC | 0.287
125 | CGCCATGC | 0.0232

Row | Sequence | PBM E-score
126 | CGCCGTGA | 0.132
127 | CACGGGGC | 0.166
128 | AGAGGTCA | -0.0324
129 | CTTTTGTA | -0.045
130 | AGCGAGAC | -0.0802
131 | CTCATGCC | -0.0302
132 | ACGACGGG | 0.203
133 | GTGGTGAA | 0.0159
134 | TGCAACCA | -0.00155
135 | CCTGGACA | -0.158
136 | CCTAGTAC | -0.131
137 | CTGCACCA | -0.142
138 | CCAGGCAA | 0.0459
139 | CACGGGCA | 0.161
140 | CAGTAACC | 0.0793
141 | GGTTATCA | -0.123
142 | CTTCTGGC | -0.184
143 | AACTTTGT | 0.158
144 | ATTCCCCA | 0.00687
145 | GGGTTAAC | 0.168
146 | AGCAAACA | 0.0356
147 | CAGCGTCA | -0.2
148 | CCAGGTCA | -0.207
149 | CATTGAGA | -0.11
150 | GGATTCCC | 0.231

Row | Sequence | PBM E-score
151 | CGTTCAAA | -0.0369
152 | CATTGCGA | 0.0437
153 | AGTTCCTG | -0.0933
154 | TGGCTCAA | -0.246
155 | AATCTGAT | 0.0354
156 | CCTCTTAC | -0.214
157 | CCAAAGCA | 0.0272
158 | AATTACCC | 0.0427
159 | CCAGAACC | -0.0209
160 | CAGAATGA | -0.0391
161 | GAAATGAA | 0.154
162 | ATCCTTGC | -0.0659
163 | AACCATTG | -0.191
164 | ACTACCTA | -0.143
165 | CCCTAGCA | -0.214
166 | GCTCTGCC | -0.0992
167 | CGACGAAG | 0.00229
168 | GTGTAGAA | -0.222
169 | CTATAGAC | -0.235
170 | AGCTTGGG | 0.0879
171 | GGTTTGCA | 0.069
172 | CGGAATAA | 0.422
